Experimental data reported in the supplement of paper PMC3334620.
Whole data set: some 33,000 sequences, median “E-score (-0.5 to 0.5)” near -0.056, cut for the highest 2% near 0.38. This is one part of the list.

molecular target: Stb4 (UniProt P50104); test: PBM E-score (8-mer binding enrichment) (E-score (-0.5 to 0.5)); higher = stronger / more preferred TF binding; most listed sequences are background and not binding sites; settings: protein concentration: 200 nM; construct: GST-DNA-binding domain
Description: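 Universal 'all 10-mer' protein binding microarrays (Agilent AMADID 015681) probed with GST-tagged S. cerevisiae TFs (full-length or DBD) made by in vitro transcription/translation (PURExpress), about 100-200 nM. Bound TF was detected with fluorescent anti-GST. Each ungapped 8-mer (which stands for itself and its reverse complement) is scored by the PBM enrichment score (E-score), a modified Wilcoxon-Mann-Whitney statistic from -0.5 to +0.5, computed with the Universal PBM Analysis Suite. Scale: above 0.35 generally sequence-specific binding.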

Sequence | PBM E-score
GTGTTCTA | -0.0421
ATTTGAGA | -0.184
AGCAAGCT | -0.288
AATCAACC | 0.0271
AGAAGTGC | -0.122
AACCTCGA | -0.0623
CTAAGAGC | -0.0722
ACTCACCA | -0.126
ACGCTGAG | -0.29
AAAATACC | 0.198
AAGACCCC | -0.0126
CGAATCAC | 0.0979
TAATGGAA | -0.017
AACCGCGA | 0.14
AGGGCGAC | -0.11
GGGATGAC | 0.0991
CCAGCTGG | -0.104
TCACCGCA | -0.179
CGTCATAG | -0.0598
GAACATAA | 0.0431
AGGCCCAC | -0.386
AAGCCGAC | 0.26
AACTTGGA | -0.0187
ACTTCCGA | 0.479
CCACCTCC | -0.00123

Sequence | PBM E-score
CGTTCAGC | -0.00077
ACCGTCAA | -0.077
GAATACGC | -0.0987
GCAACATA | -0.236
AGTGGCGA | -0.0817
CGGAAGCC | 0.41
GTGTCTGA | -0.166
GTGTCCTA | -0.0154
GCGAAGAA | -0.137
ATTCCACG | -0.0548
TGACACCA | -0.273
TCGGGTAA | 0.464
CGGCCTGC | 0.0532
GCCTAAAC | -0.248
GGCGGCAA | 0.229
ATGGCCGA | 0.192
GCGGAGAC | 0.187
AGCGCGTG | -0.0215
AGTAGTGC | -0.0753
ACCGAGAT | 0.407
TGATTAAA | -0.169
ACAGGCTA | -0.197
ATTTTAAG | -0.142
CATTTTCG | 0.109
AAGGGCGT | -0.165

Sequence | PBM E-score
AGGTAACG | -0.0676
CACTCTCG | 0.106
TCGAATAA | -0.136
CGCCCAAG | -0.121
CTCGGTCC | 0.316
CCAGACAC | -0.284
CATCGCCC | -0.101
CTAAACTA | -0.142
CGGTTACA | 0.275
CATTACCC | 0.157
CGTGATAG | -0.0273
GCCCTGCA | -0.112
CGGCTGTA | 0.306
AAGATACC | 0.041
AACCGAAG | 0.362
AGACGTAA | -0.149
CTCCTGAA | 0.0573
GGATAGAA | 0.193
CCTGCGAG | -0.134
GCTAGACA | -0.0345
TCCAGGGA | -0.351
ACAGGGCG | -0.0833
CACACTCC | -0.0547
AAGGGCGA | -0.0681
AGGAGCTG | -0.199

Sequence | PBM E-score
ATCCCGTG | 0.288
AACATATC | -0.0288
GCTCGGGA | 0.464
CGGGAGAC | 0.295
GGCATGGA | 0.101
ATCCATTG | -0.00149
CTGAATGC | 0.0226
AGCGCCAG | -0.0684
ACTCAGGC | -0.193
CCTGTCAA | -0.154
AGCACCCT | -0.276
GTTATGTA | 0.0908
ATGAACAT | -0.095
CAAACTAG | -0.191
CAGGATAG | -0.0723
AGGTGCCC | -0.0279
AGAAAGAG | -0.112
ATCTTGGC | -0.063
GAACAGTC | -0.127
CCCGTTTC | 0.15
GATACGTA | -0.11
ATCTTTCC | 0.182
ATGTGTGA | -0.0977
AAGTAATC | -0.0359
AGTGAAAG | -0.0591

Sequence | PBM E-score
ATTCTCGC | -0.286
CAAGGTCA | -0.242
CCATGCCA | -0.0678
ATTGCGCG | 0.116
ATCATTTA | 0.0923
GGAAGCAA | 0.199
GACACGGC | 0.157
CATAAGGC | -0.0739
ACCTAATC | -0.0248
AAAGATAT | 0.0432
TCGCAGCA | -0.305
CCAGATTC | 0.0533
CACGCCCG | 0.141
ATGTGGAG | -0.0971
GAATGCCC | -0.0783
GAAACATC | 0.0593
AGATTGCC | 0.0513
CGACAATA | 0.0891
CATCCGTC | 0.308
TCGCATAA | -0.0545
GTGATACA | -0.171
ATTAGCCC | -0.0135
ATGCCTGA | -0.22
GTCCTTCA | -0.0533
CTCCCAAG | -0.114

Sequence | PBM E-score
AATACAGT | -0.194
CGAACGTC | -0.0147
AAAGGGTT | -0.235
AAGTTTAA | -0.103
GACCTGCA | -0.327
ACATACAA | -0.0162
CTCACGTA | -0.102
AAACCCTG | -0.0104
CCCCAGCG | -0.225
CACTCGGG | 0.371
TACCCCAA | -0.0488
CATACAAA | 0.113
AACGAGAC | 0.0629
AAAATTAG | 0.0456
AGGTGCTG | -0.15
ACCTCGTG | -0.0555
CTCTAATA | -0.125
AACAGCCA | -0.153
AAACTGAA | -0.0849
ACGACCGG | 0.134
ATTATGTG | -0.0588
AAGGGTTC | -0.14
ACTTATTG | -0.215
ATGTCGTC | -0.0812
ACTTCGCC | -0.0357

Sequence | PBM E-score
CCTTTACA | -0.126
CCACGATA | -0.186
AAGGATAC | -0.152
CGAGTTCA | 0.022
GGGCCTAA | -0.219
CTGACCAG | -0.12
AGCGAGAG | 0.0482
ATAGACGG | 0.16
AGTAGAGG | -0.167
TAACTGTA | -0.321
GCCACGAC | 0.00973
AGTTACGC | -0.254
AATGACCT | -0.0666
ATTGGAAC | -0.0214
CTCTGTTA | -0.138
CCATGGAA | -0.122
GTGTGGAA | -0.0632
TAGTATCA | 0.0271
GAAAGGAA | 0.0495
AGGTGATG | -0.0487
CTACATCA | -0.0378
GCACTGTA | -0.098
